{
  "source": "PubChem BioAssay AID624296",
  "about": "(National Center for Advancing Translational Sciences (NCATS), 2012)",
  "note": "“And” between values parts separate entries of the source, which are not always exact repeats. Identical values can stand only once. The whole screen tested about 350,000 compounds, of which about 9,900 (2.8%) were called active. This list was built around the results that the source calls inconclusive (neither active nor inactive); the mix of calls is not that of the screen. Calls follow the shape of the dose curve; as a rule, active = well fitted activation curve with a large enough effect; inconclusive = small, poorly fitted or top-dose-only effect; inactive = no such curve, though single readings can be large or run the other way. Where the call is inconclusive, the potency comes from a doubtful curve fit. Potency is read from the fitted curve at half-maximal effect; tags tell the direction and shape of the fitted curve.",
  "data": [
    {"test": "A quantitative high throughput screen for small molecules that induce DNA re-replication in MCF 10a normal breast cells; also: nearly all actives have a fitted effect of over 50% in size.", "conditions": "MCF 10A DNA re-replication, Hoechst nuclear intensity, 48 h; series mostly up to 46.1 µM", "values": [
      {"smiles": "CCCC(C(=O)Nc1ccc2c(C)cc(=O)oc2c1)c1ccccc1", "note": "(stereo unspecified)", "Potency": "inconclusive: 18.4 µM [activator, single point]"},
      {"smiles": "O=C(CN1CCN(c2ccccc2O)CC1)Nc1cc(S(=O)(=O)N2CCCC2)ccc1Cl", "Potency": "inactive"},
      {"smiles": "CCOC(=O)c1ccc(NC(=O)CCc2ccc(CC)o2)cc1", "Potency": "inconclusive: 18.4 µM [activator, partial curve]"},
      {"smiles": "Cc1sc2ncnc(SCC(=O)c3ccc4c(c3)OCCO4)c2c1-c1ccccc1", "Potency": "inactive"},
      {"smiles": "CCOC(=O)N1CCN(C(=O)CN(Cc2ccccc2)S(C)(=O)=O)CC1", "Potency": "inconclusive: 29.1 µM [activator, single point]"},
      {"smiles": "S=C(NCc1ccccc1)NC1CCCc2ccccc21", "note": "(stereo unspecified)", "Potency": "inactive"},
      {"smiles": "Cc1ccc(NS(=O)(=O)c2ccc(NC(=O)CN(c3cc([N+](=O)[O-])ccc3C)S(C)(=O)=O)cc2)c(C)c1", "Potency": "inconclusive: 18.4 µM [activator, partial curve, poor fit]"},
      {"smiles": "Fc1ccccc1CN1CCCN(C(=S)Nc2cccc(Cl)c2)C1", "Potency": "inconclusive: 23.1 µM [activator, single point]"},
      {"smiles": "C/C(=N\\N=c1/scc(C)n1Cc1ccco1)c1cccc([N+](=O)[O-])c1", "Potency": "inconclusive: 5.17 µM [activator, partial curve, poor fit]"},
      {"smiles": "N/C(=N\\OC(=O)c1ccco1)c1ccccc1", "Potency": "inconclusive: 16.4 µM [activator, single point]"},
      {"smiles": "Cc1cc(C)c2nc(N3C(=O)C(O)=C(C(=O)c4ccco4)C3c3ccco3)sc2c1", "note": "(stereo unspecified)", "Potency": "active: 18.4 µM"},
      {"smiles": "COc1ccc2c(c1OC)C(=O)N1C2SC[C@H]1C(=O)NC1CC1", "note": "(stereo partly specified)", "Potency": "inconclusive: 0.58 µM [activator, partial curve, poor fit]"},
      {"smiles": "CC(=O)NC(c1cccs1)c1cc([N+](=O)[O-])c2cccnc2c1O", "note": "(stereo unspecified)", "Potency": "inconclusive: 0.0146 µM [activator, full curve, poor fit]"},
      {"smiles": "O=C(Nc1ccc(S(=O)(=O)N2CCOCC2)cc1)c1ccc(CN2CCc3ccccc3C2)cc1", "Potency": "inconclusive: 18.4 µM [activator, single point]"},
      {"smiles": "Cc1ccccc1OCCC(=O)N1CCN(S(=O)(=O)c2ccc(Cl)cc2)CC1", "Potency": "inconclusive: 0.731 µM [activator, full curve, poor fit]"},
      {"smiles": "CCc1nnc(NC(=O)c2ccc(COc3cccc(C)c3)o2)s1", "Potency": "inactive"},
      {"smiles": "Cc1sc2ncnc(N3CCN(S(=O)(=O)c4ccc(C(C)(C)C)cc4)CC3)c2c1C", "Potency": "inconclusive: 29.1 µM [activator, single point]"},
      {"smiles": "CCOC(=O)C(C)(C)N(Cc1ccc(Cl)cc1)S(=O)(=O)c1ccc(Cl)c([N+](=O)[O-])c1", "Potency": "active: 13 µM"},
      {"smiles": "CCOC(=O)C1=C(C)NC(C)=C(C(=O)OCC)C1C(=O)OCC(=O)N(C)C", "Potency": "inconclusive: 32.6 µM [activator, partial curve, poor fit]"},
      {"smiles": "CCN(C1CCCCC1)S(=O)(=O)c1cc2c3c(c1)CCN3C(=O)CC2", "Potency": "inconclusive: 0.92 µM [activator, single point]"},
      {"smiles": "CCC(=O)Oc1ccc(C(=O)Nc2ccc3c(c2)OCO3)cc1", "Potency": "inactive"},
      {"smiles": "COc1ccc(OC)c2[nH]c(=O)c(CCNC(=O)c3ccc(S(=O)(=O)N4CCCC4)cc3)cc12", "Potency": "inconclusive: 23.1 µM [activator, single point]"},
      {"smiles": "CCOC(=O)c1c(-c2ccc(C)o2)csc1NC(=S)NC(=O)N(C)C", "Potency": "inconclusive: 11.2 µM [activator, partial curve, poor fit]"},
      {"smiles": "CN(CC(=O)Nc1ccc(F)cc1)C(=O)c1cccc(S(=O)(=O)N2CCN(c3ccccc3)CC2)c1", "Potency": "inconclusive: 11.6 µM [activator, partial curve, poor fit]"},
      {"smiles": "CCOC(=O)N1C(=O)[C@](CC)(c2ccccc2)N1C(=O)OCC", "Potency": "active: 16.4 µM"},
      {"smiles": "Cc1ccccc1C(=O)N1CCC(C(=O)Nc2ccc3c(c2)OCO3)CC1", "Potency": "inactive"},
      {"smiles": "Cc1ccc(S(=O)(=O)Nc2ccc(Cl)cc2C(=O)c2ccccc2)cc1", "Potency": "inconclusive: 4.61 µM [activator, full curve, poor fit]"},
      {"smiles": "COCc1cc(C)n(CC(=O)Nc2ccccc2OC)c(=O)c1C#N", "Potency": "inconclusive: 16.4 µM [activator, partial curve]"},
      {"smiles": "O=C(NC1CCN(C(=S)Nc2ccc(Cl)cc2)CC1)c1ccco1", "Potency": "inactive"},
      {"smiles": "O=[N+]([O-])c1ccc(-c2nc(C(Cl)Cl)c3ccccc3n2)cc1", "Potency": "inconclusive: 2.31 µM [activator, partial curve]"},
      {"smiles": "CCCCN(CCCC)C1=Nc2ccccc2N/C1=C(/C#N)C(=O)OCC", "Potency": "inconclusive: 18.4 µM [activator, single point]"},
      {"smiles": "CNc1ccccc1C(C)(C)c1cc(C)[nH]n1", "Potency": "inconclusive: 23.1 µM [activator, single point]"},
      {"smiles": "O=C(CN1C(=O)NC2(CCCCCCC2)C1=O)N1CCN(C(=O)c2ccco2)CC1", "Potency": "inactive"},
      {"smiles": "COc1ccc(CN(CCN(C)C)c2ccccn2)cc1", "Potency": "inconclusive: 4.11 µM [activator, partial curve, poor fit] and inconclusive: 1.46 µM [activator, full curve, poor fit]"},
      {"smiles": "COc1cc(CNCc2cccs2)ccc1OCc1cccs1", "Potency": "inactive"},
      {"smiles": "N#CC(c1ccccc1)c1ccc(C(=O)c2ccc(F)cc2)cc1", "note": "(stereo unspecified)", "Potency": "inconclusive: 23.1 µM [activator, single point]"},
      {"smiles": "CC(C)(C)c1cc(CCC(=O)NNC(=O)c2ccco2)cc(C(C)(C)C)c1O", "Potency": "inconclusive: 29.1 µM [activator, single point]"},
      {"smiles": "Nc1ncn([C@@H]2O[C@H](CO)[C@@H](O)[C@H]2O)c(=O)n1", "Potency": "inconclusive: 2.99 µM [activator, full curve] and inconclusive: 2.31 µM [activator, partial curve, poor fit]"},
      {"smiles": "O=c1nc(NO)ccn1C1CCCO1", "note": "(stereo unspecified)", "Potency": "inactive"},
      {"smiles": "Cc1ccc(-c2cc(C(=O)N3CCN(C(=O)c4ccco4)CC3)[nH]n2)c(C)c1", "Potency": "inactive"},
      {"smiles": "O=C(C1CCC(Cn2c(=S)[nH]c3ccccc3c2=O)CC1)N1CCN(c2ccccc2)CC1", "note": "(stereo unspecified)", "Potency": "inconclusive: 1.3 µM [activator, full curve, poor fit]"}
    ]}
  ]
}
